± gives the standard deviation. The entries are a selection whose mix differs from that of the whole data set.
Tested on: MIWI (PIWIL1) piRISC loaded with L1MC piRNA (30 nt)
Assay: pre-steady-state target cleavage rate (min^-1); MIWI and MILI are mouse PIWI proteins and EfPiwi is from a freshwater sponge; tags in brackets are library labels; higher = faster piRNA-guided slicing of the target
Conditions: guide: L1MC piRNA 5'p-UAACUAAAUACUAUGCAAGCUGUAGGUCCU
Method in brief: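 The pre-steady-state cleavage rate was derived from a burst-and-steady-state fit of Cleave-'n-Seq data. For these assays, 1 nM active affinity-purified piRISC loaded with a single synthetic guide was mixed with […] a transcribed, DNA-blocked target RNA library in HEPES–potassium acetate buffer at 33 °C, with or without 500 nM GTSF1 partner protein, for 0–8 or 0–960 min. Sequencing counts of uncleaved targets were normalised to depth and to weakly complementary targets, and k3 was capped at 0.0001 min^-1 after three trials were pooled.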

[1] = auxiliary factor: 500 nM mouse GTSF1
[2] = auxiliary factor: none (no GTSF1)
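Also: 1 nM active piRISC with 0.1 nM target library at 33 °C single turnover.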

Row | Sequence | pre-steady-state target cleavage rate [1] | pre-steady-state target cleavage rate [2]
1 | UCCUGGUACAGCUUGGAUAGUAUAUAGUUA | 0.402 ± 0.073 | 0.0156 ± 0.0047
2 | UCCUGGAUGAGCUUGGAUAGUUUUUAGUUA | 0.106 ± 0.015 | 0.0227 ± 0.0062
3 | UCGACCUACAGCUUGUAUAGUAUUUAGUUA | 1.7 ± 0.074 | 0.0725 ± 0.015
4 | UGGACCUACAGCUAUGCAUAGUAUUUAGUUA | 1.24 ± 0.11 | 0.0371 ± 0.0083
5 | UCCUGGUACAGCUUGCAUAGUAUUUACGUUA | 0.474 ± 0.066 | 0.0252 ± 0.0062
6 | UCCUGGAUCAUGCUUGCAUAGUAUUUAGUUA | 1.04 ± 0.054 | 0.0609 ± 0.014
7 | AGGACCUACAGCUUGCAUAGUAAUAAGUUA | 0.488 ± 0.052 | 0.00534 ± 0.0028
8 | UCCUCCUACAGCUUGCAUAGUAUUUAGAAA | 0.412 ± 0.048 | 0.00541 ± 0.0029
9 | UCCUCCAUGAGCUUGCAUAGUAUUUACAAA | 0.118 ± 0.025 | 0.00268 ± 0.002
10 | UGCACCUACAGCUUGCAUAGAAUUUAGUUA | 0.563 ± 0.047 | 0.0199 ± 0.0054
11 | UCCUGGAACACGUUGCAUAGUAUUUAGUAA | 0.241 ± 0.049 | 0.00341 ± 0.0027
12 | UCCUGGAUGAGCUUGCAUAGUAUUAAGUAA | 0.197 ± 0.036 | 0.0178 ± 0.0055
13 | UCCUGGAACAGCUUGCAUAGUUAUUAGUAA | 0.0357 ± 0.011 | 0.00441 ± 0.0032
14 | UCCUGCUACAGCUUGCAGAGUAUUUAGUUA | 1.13 ± 0.12 | 0.0228 ± 0.0065
15 | UCCUGGUACAGCUUGGUUAGUAUUUAGUAA | 0.412 ± 0.079 | 0.0101 ± 0.0031
16 | UCCUGGAUGAGCUUGCAUAGUAUUUACUUA | 0.152 ± 0.031 | 0.0197 ± 0.0045
17 | UGGACCUACACCUUGCAUACUAUUUAGUUA | 0.244 ± 0.021 | 0.0225 ± 0.006
18 | UCCUCCUACAGACUUGCAUAGUAUUUAGUUA | 0.828 ± 0.057 | 0.0333 ± 0.006
19 | UCCUCCUACAGCUUCAUAGUAUUUAGUUA | 0.88 ± 0.031 | 0.00715 ± 0.0016
20 | UCCUCCUAACAGCUUGCAUAGUAUUUAGUUA | 0.591 ± 0.025 | 0.0508 ± 0.0092
21 | UGGACCUACAGCUUGCAAAGUAUUAAGUUA | 0.723 ± 0.052 | 0.00967 ± 0.0035
22 | AGCACCUACAGCUUGCAAAGUAUUUAGUUA | 0.829 ± 0.063 | 0.0263 ± 0.0047
23 | UCCUGGUACAGCUUGCAUAGUAUUUAGUCA | 0.358 ± 0.046 | 0.0208 ± 0.0034
24 | UCCUGGUUCAGCUAGCAUAGUAUUUAGUUA | 0.872 ± 0.045 | 0.0169 ± 0.004
25 | UCGACGUACAGCUUGCAUAGUAUAUAGUUA | 0.801 ± 0.037 | 0.031 ± 0.0075
26 | UCCUGGAACAGCUUGCAUGGUAUUUAGUUA | 1.22 ± 0.058 | 0.074 ± 0.02
27 | AGGACCUACACCUUGCAUUGUAUUUAGUUA | 0.729 ± 0.022 | 0.0385 ± 0.0073
28 | UCCACCAACAGCUUGCAUAGUAUUUACUUA | 0.249 ± 0.028 | 0.0271 ± 0.0046

Row | Sequence | pre-steady-state target cleavage rate [1] | pre-steady-state target cleavage rate [2]
29 | UGGACCUACAGCUUCCAUUGUAUUUAGUUA | 0.113 ± 0.009 | 0.0026 ± 0.0019
30 | UCGACCUACAGCUUGCAUUCUAUUUAGUUA | 0.356 ± 0.021 | 0.00761 ± 0.003
31 | UCCUGGAUGAGCUAGCAUAGAAUUUAGUUA | 0.0859 ± 0.012 | 0.00371 ± 0.0033
32 | UCCACCUUCAGCUUGCAUACUAUUUAGUUA | 0.313 ± 0.025 | 0.0227 ± 0.0046
33 | UCCUCCUACAGCUUGGAUAGUAUUUACUUA | 0.2 ± 0.031 | 0.0159 ± 0.0024
34 | UCCUCGAACAGCUUGCAUAGUAUUUAGAAA | 0.474 ± 0.043 | 0.00694 ± 0.0025
35 | AGGACCUAGAGCUAGCAUAGUAUUUAGUUA | 0.983 ± 0.05 | 0.0238 ± 0.0054
36 | UGGACCUACAGCAUGCAUUGUAUUUAGUUA | 0.858 ± 0.058 | 0.0141 ± 0.0037
37 | UCCUGGAUGUGCUUGCAUAGUAUUAAGAUA | 0.0152 ± 0.0068 | 0.00358 ± 0.0031
38 | UCCUGCUUCUGCUUGCAUAGUAUUUAGUUA | 0.606 ± 0.03 | 0.0455 ± 0.0097
39 | UCCUGGAUCAGCUUGCAAAGUAAUUAGUUA | 0.27 ± 0.028 | 0.0111 ± 0.0048
40 | UGGACCAACAGCUUGCAUAGUAUAUAGUUA | 0.881 ± 0.04 | 0.0312 ± 0.0071
41 | AGGACGUACAGCUUGCAUAGUAAUUAGUUA | 0.806 ± 0.062 | 0.0345 ± 0.0099
42 | UCCUGGAUCAGCUUGCAAACUAUUUAGUUA | 0.0815 ± 0.0098 | 0.00677 ± 0.003
43 | UCCUGGAUCAGCUUGCAUAGUUUUUAGAUA | 0.0839 ± 0.021 | 0.0124 ± 0.0033
44 | UCCUGGAUGUGCUUGCAUAGUAAUUUGUUA | 0.0171 ± 0.0079 | 0.00536 ± 0.0029
45 | UCGACCUACUGCUUGCAUAGUAUUUUCAAA | 0.184 ± 0.023 | 0.00371 ± 0.0019
46 | UCCUGGAUCAGCUUGCAUAGUAUAUUGUUA | 0.317 ± 0.025 | 0.0142 ± 0.0066
47 | UGGAGCUACACCUUGCAUAGUAUUUAGUUA | 1.12 ± 0.051 | 0.0597 ± 0.0097
48 | UCCACCUACAGCUUGCAUAGUAGUUAGUUA | 0.383 ± 0.042 | 0.0181 ± 0.0033
49 | AGCUCCUACAGCUUGCAUAGUAUUUACAAA | 0.331 ± 0.047 | 0.00384 ± 0.0021
50 | UCCUGGAUGAGCUUGCAUAGUAUUUAGCUUA | 0.196 ± 0.043 | 0.0368 ± 0.0079
51 | UCCUGGAUCAGCUUGAUAGUAUUUAGUUA | 0.0664 ± 0.007 | 0.00393 ± 0.0017
52 | UCCUGGAUGAGCUUGCAUACUAUAUAGUUA | 0.0617 ± 0.013 | 0.0108 ± 0.003
53 | UCCUGGAUCAGCUUGCAUAGUAUUUAGUAUA | 0.842 ± 0.042 | 0.0129 ± 0.0036
54 | UCCUGGAUGUGCUGGCAUAGUAUUUAGUUA | 0.141 ± 0.012 | 0.0131 ± 0.0037
55 | UCCUCCUACAGGUUGCAUAGUAUUAAGUUA | 0.462 ± 0.037 | 0.00954 ± 0.0016
